Assay results published in the supplement of paper PMC12297408.
Where a name gives a salt, the structure may show the parent alone. Screen size: about 1,300 compounds; about 40 (3%) showed activity. Some of the results follow.

Tested on: Plasmodium falciparum NF54/iGP1_RE9H ulg8 stage V gametocytes
Test: gametocyte viability (luciferase signal relative to DMSO control) (% of DMSO control); higher = less gametocytocidal activity, active = 50 or less
Conditions: exposure time: 72 h
In short: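 Compounds from 10 mM DMSO stocks were spotted at nanolitre scale into 96-well plates, and day-12 stage V NF54/iGP1_RE9Hulg8 gametocytes (~2.5% gametocytemia, 3% hematocrit; medium with 0.5% Albumax II) were added to reach 10 µM or 1 µM, one well per concentration. The plates were kept at 37 °C for 72 h. Luminescence was then read on an IVIS Lumina II after mixing 90 µl of culture with 10 µl D-luciferin (30 mg/ml). Viability values are relative to the plate's mean DMSO vehicle signal.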

Row | Compound | gametocyte viability (concentration: 1 µM) | gametocyte viability (concentration: 10 µM)
1 | OCC(O)CN1CCN(c2ccccc2)CC1 (racemic) [Dropropizine (R,S)] | inactive: 99.6 | inactive: 102
2 | c1ccc2c(c1)CCCC2C1=NCCN1 (stereo unspecified) [Tetrahydrozoline hydrochloride] | inactive: 93.3 | inactive: 84.7
3 | C[C@@H](O)[C@H]1C(=O)N2C(C(=O)O)=C(SCCNC=N)C[C@H]12 [Imipenem] | inactive: 88.8 | inactive: 87.5
4 | CCCCCN(C)CCC(O)(P(=O)(O)O)P(=O)(O)O [Ibandronate sodium] | inactive: 87.2 | inactive: 87.1
5 | C1N2CN3CN1CN(C2)C3 [Methenamine] | inactive: 86.3 | inactive: 83.8
6 | O=C1NCCN1c1ncc([N+](=O)[O-])s1 [Niridazole] | inactive: 93.4 | inactive: 96.6
7 | CC(=O)OCC(=O)NCCCOc1cccc(CN2CCCCC2)c1 [Roxatidine Acetate HCl] | inactive: 82.7 | inactive: 88.1
8 | CCn1cc(C(=O)O)c(=O)c2cc(F)c(N3CCNCC3)nc21 [Enoxacin] | inactive: 94.5 | inactive: 91.3
9 | CC(C(=O)O)c1cccc(Oc2ccccc2)c1 (stereo unspecified) [Fenoprofen calcium salt dihydrate] | inactive: 91.7 | inactive: 91.8
10 | Oc1ccc(C2CNCCc3c2cc(O)c(O)c3Cl)cc1 (stereo unspecified) [Fenoldopam] | inactive: 96.3 | inactive: 93.1
11 | CCCc1ncc(C[n+]2ccccc2C)c(N)n1 [Amprolium hydrochloride] | inactive: 82.2 | inactive: 89.3
12 | CO[C@H]1/C=C/O[C@@]2(C)Oc3c(C)c(O)c4c(O)c(c(/C=N/N5CCN(C)CC5)c(O)c4c3C2=O)NC(=O)/C(C)=C\C=C\[C@H](C)[C@H](O)[C@@H](C)[C@@H](O)[C@@H](C)[C@H](OC(C)=O)[C@@H]1C [Rifampicin] | inactive: 87.6 | inactive: 84.6
13 | CC=C(C)C(=O)OC1C(OC(C)=O)C2(CO)C(O)CC3(C)C(=CCC4C5(C)CCC(OC6OC(C(=O)O)C(OC7OC(CO)C(O)C(O)C7O)C(O)C6OC6OC(CO)C(O)C(O)C6O)C(C)(CO)C5CCC43C)C2CC1(C)C (stereo not drawn) [Beta-Escin] | inactive: 90.1 | inactive: 93.2
14 | Cc1c(Cl)cccc1Nc1ccccc1C(=O)O [Tolfenamic acid] | inactive: 83.6 | inactive: 90.8
15 | CCCSc1ccc2[nH]c(NC(=O)OC)nc2c1 [Albendazole] | inactive: 93 | inactive: 102
16 | Cc1ccc(N(CC2=NCCN2)c2cccc(O)c2)cc1 [Phentolamine hydrochloride] | inactive: 99 | inactive: 98.9
17 | CCc1ccc(CCOc2ccc(CC3SC(=O)NC3=O)cc2)nc1 (stereo unspecified) [Pioglitazone] | inactive: 86 | inactive: 88.2
18 | c1ccc(CC2=NCCN2)cc1 [Tolazoline hydrochloride] | inactive: 89.1 | inactive: 86.3
19 | CC(C)(Oc1ccc(CCNC(=O)c2ccc(Cl)cc2)cc1)C(=O)O [Bezafibrate] | inactive: 98.6 | inactive: 97
20 | OCCN1CCN(CCCN2c3ccccc3Sc3ccc(C(F)(F)F)cc32)CC1 [Fluphenazine dihydrochloride] | inactive: 89.1 | inactive: 68.1

Row | Compound | gametocyte viability (concentration: 1 µM) | gametocyte viability (concentration: 10 µM)
21 | O=C(O)CCc1nc(-c2ccccc2)c(-c2ccccc2)o1 [Oxaprozin] | inactive: 87.7 | inactive: 88.5
22 | O=C1c2ccccc2C(=O)C1c1ccccc1 [Phenindione] | inactive: 97.4 | inactive: 97.6
23 | Clc1ccc2c(c1)C(N1CCNCC1)=Nc1ccccc1O2 [Amoxapine] | inactive: 81.3 | inactive: 83.6
24 | CC[C@H]1OC(=O)[C@H](C)[C@@H](O[C@H]2C[C@@](C)(OC)[C@@H](O)[C@H](C)O2)[C@H](C)[C@@H](O[C@@H]2O[C@H](C)C[C@H](N(C)C)[C@H]2O)[C@](C)(O)C[C@@H](C)C(=O)[C@H](C)[C@@H](O)[C@]1(C)O [Erythromycin] | inactive: 85.4 | inactive: 87.6
25 | CCOC(=O)N1CCC(=C2c3ccc(Cl)cc3CCc3cccnc32)CC1 [Loratadine] | inactive: 86 | inactive: 87.7
26 | COc1ccc(CC(C)NCC(O)c2ccc(O)c(NC=O)c2)cc1 (stereo unspecified) [Formoterol fumarate] | inactive: 84.3 | inactive: 85.1
27 | C[C@H](N[C@@H](CCc1ccccc1)C(=O)O)C(=O)N1CCC[C@H]1C(=O)O [Enalaprilat dihydrate] | inactive: 82.6 | inactive: 87.4
28 | COC(=O)[C@H](c1ccccc1Cl)N1CCc2sccc2C1 [Clopidogrel] | inactive: 86.2 | inactive: 93.7
29 | C[C@]12CCC(=O)C=C1CC[C@@H]1[C@@H]2C(=O)C[C@@]2(C)[C@H]1CC[C@]2(O)C(=O)CO [Cortisone] | inactive: 92.6 | inactive: 93.8
30 | COCCCC/C(=N\OCCN)c1ccc(C(F)(F)F)cc1 [Fluvoxamine maleate] | inactive: 93.3 | inactive: 91.7
31 | CC(=O)[C@@]12O[C@](C)(c3ccccc3)O[C@@H]1C[C@H]1[C@@H]3CCC4=CC(=O)CC[C@]4(C)[C@H]3CC[C@@]12C [Algestone acetophenide] | inactive: 93 | inactive: 103
32 | C[C@@H](O[C@H]1OCCN(Cc2n[nH]c(=O)[nH]2)[C@H]1c1ccc(F)cc1)c1cc(C(F)(F)F)cc(C(F)(F)F)c1 [Aprepitant] | inactive: 87.7 | inactive: 75.4
33 | CN1CCCN=C1/C=C/c1cccc(O)c1 [Oxantel pamoate] | inactive: 80.4 | inactive: 87.7
34 | CC(N)CCCC(C)(C)O (stereo unspecified) [Heptaminol hydrochloride] | inactive: 82.3 | inactive: 84.6
35 | CC(C)OC(=O)C(C)(C)Oc1ccc(C(=O)c2ccc(Cl)cc2)cc1 [Fenofibrate] | inactive: 99.4 | inactive: 98.6
36 | Cc1c(O)c(=O)n(-c2ccccc2)n1C [Antipyrine, 4-hydroxy] | inactive: 86 | inactive: 86.8
37 | CC=CC1=C(C(=O)O)N2C(=O)[C@@H](NC(=O)[C@H](N)c3ccc(O)cc3)[C@H]2SC1 [Cefprozil] | inactive: 83.2 | inactive: 80.7
38 | Cc1cc2c(s1)Nc1ccccc1N=C2N1CCN(C)CC1 [Olanzapine] | inactive: 97 | inactive: 90.5
39 | CCCCc1ccc2[nH]c(NC(=O)OC)nc2c1 [Parbendazole] | inactive: 95.1 | inactive: 97
40 | Nc1ncnc2c1ncn2C1OC(COP(=O)(O)O)C(O)C1O (stereo unspecified) [Adenosine 5'-monophosphate monohydrate] | inactive: 81.1 | inactive: 83.8

Row | Compound | gametocyte viability (concentration: 1 µM) | gametocyte viability (concentration: 10 µM)
41 | CCOc1ccc2nc(S(N)(=O)=O)sc2c1 [Ethoxzolamide] | inactive: 88.1 | inactive: 91.9
42 | CN1CCCN(C(c2ccccc2)c2ccc(Cl)cc2)CC1 (stereo unspecified) [Homochlorcyclizine dihydrochloride] | inactive: 84.6 | inactive: 68.1
43 | C[C@@H]1C[C@H]2[C@@H]3CCC4=CC(=O)C=C[C@]4(C)[C@@]3(Cl)[C@@H](O)C[C@]2(C)[C@@]1(OC(=O)c1ccco1)C(=O)CCl [Mometasone furoate] | inactive: 88.8 | inactive: 96
44 | C=C1c2cccc(O)c2C(O)=C2C(=O)[C@]3(O)C(O)=C(C(N)=O)C(=O)[C@@H](N(C)C)[C@@H]3[C@@H](O)[C@H]12 [Methacycline hydrochloride] | inactive: 89.8 | inactive: 89.5
45 | O=C(O)c1cc(/N=N/c2ccc(S(=O)(=O)Nc3ccccn3)cc2)ccc1O [Sulfasalazine] | inactive: 103 | inactive: 96.4
46 | C/C(=C\C(=O)OCCCCCCCCC(=O)O)C[C@@H]1OC[C@H](C[C@@H]2O[C@H]2[C@@H](C)[C@H](C)O)[C@@H](O)[C@H]1O [Mupirocin] | inactive: 102 | inactive: 95.8
47 | CCc1cccc(CC)c1NC(=O)CN(CC(=O)O)CC(=O)O [Etifenin] | inactive: 94.6 | inactive: 95
48 | CN/C(=N\CCSCc1nc[nH]c1C)NC#N [Cimetidine] | inactive: 100 | inactive: 94.5
49 | COc1ccc2cc([C@H](C)C(=O)O)ccc2c1 [Naproxen] | inactive: 93 | inactive: 94.9
50 | C/C=C(/C(=C/C)c1ccc(O)cc1)c1ccc(O)cc1 [Dienestrol] | inactive: 91.2 | inactive: 96.9
51 | Cc1ncc([N+](=O)[O-])n1CC(C)O (stereo unspecified) [Secnidazole] | inactive: 96.2 | inactive: 98.6
52 | O=C(O)c1ccccc1OP(=O)(O)O [Fosfosal] | inactive: 90 | inactive: 81.4
53 | CC1(C)S[C@@H]2[C@H](NC(=O)[C@H](N)c3ccccc3)C(=O)N2[C@H]1C(=O)O [Ampicillin trihydrate] | inactive: 82 | inactive: 82.2
54 | O=c1n(CCCN2CCN(c3cccc(Cl)c3)CC2)nc2ccccn12 [Trazodone hydrochloride] | inactive: 90.8 | inactive: 86.5
55 | Cc1nc2ccccn2c(=O)c1CCN1CCC(C(=O)c2ccc(F)cc2)CC1 [Pirenperone] | inactive: 85.1 | inactive: 88.8
56 | CSc1nc2cc(Cl)c(Oc3cccc(Cl)c3Cl)cc2[nH]1 [Triclabendazole] | inactive: 85.7 | inactive: 92
57 | O=C(CCNNC(=O)c1ccncc1)NCc1ccccc1 [Nialamide] | inactive: 87.4 | inactive: 84.5
58 | N/C(=N\C(=O)c1nc(Cl)c(N)nc1N)NCc1ccccc1 [Benzamil hydrochloride] | inactive: 88.7 | inactive: 81.1
